Data from the supplement of paper PMC4967469.
The IC50 comes from the fitted curve, where viability falls to half of the control; fits outside the tested doses are given as limits. The AUC spans the tested range (256-fold, ending at the top dose) of the same fit; the more sensitive the line, the further below 1. For part of these data: The top dose, if marked as inferred, was calculated from the reported fits. For part of these data: Where an entry number is given, a second screen of the drug exists; the two often differ.

How the values were obtained:
Assay in all cases: Viability of human cancer cell lines after 72 h of drug (GDSC screen)
SB-715992 = compound: Cc1ccc(C(=O)N(CCCN)[C@@H](c2nc3cc(Cl)ccc3c(=O)n2Cc2ccccc2)C(C)C)cc1 [SB-715992]; settings: top dose 0.128 µM; top dose inferred
Description: (§1)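 Human cancer cell lines in 384-well plates, medium with 10% serum, drug for 72 h over a 256-fold dose range (nine 2-fold or five 4-fold steps up to the top dose). Adherent lines were fixed and stained with the nucleic acid dye Syto60, suspension lines read with resazurin; signal relative to control wells, capped at 0 and 100%. One two-parameter sigmoid per drug and line, fitted in a mixed model over all curves with the slope shared within a line.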

CGP-60474 = compound: OCCCNc1cc(-c2ccnc(Nc3cccc(Cl)c3)n2)ccn1 [CGP-60474]; settings: top dose 0.256 µM; top dose inferred
Description: as §1

FTI-277 = compound: COC(=O)[C@H](CCSC)NC(=O)c1ccc(NC[C@@H](N)CS)cc1-c1ccccc1 [FTI-277]; settings: top dose 1.024 µM; top dose inferred
Description: as §1

Belinostat = compound: O=C(/C=C/c1cccc(S(=O)(=O)Nc2ccccc2)c1)NO [Belinostat]; settings: top dose 20 µM; top dose inferred
Description: as §1

JQ1 = compound: Cc1sc2c(c1C)C(c1ccc(Cl)cc1)=N[C@@H](CC(=O)OC(C)(C)C)c1nnc(C)n1-2 [JQ1]
Description: as §1

NVP-TAE684 = compound: COc1cc(N2CCC(N3CCN(C)CC3)CC2)ccc1Nc1ncc(Cl)c(Nc2ccccc2S(=O)(=O)C(C)C)n1 [NVP-TAE684]; settings: top dose 2 µM
Description: as §1

JNJ-26854165 = compound: c1ccc2c(CCNc3ccc(Nc4ccncc4)cc3)c[nH]c2c1 [JNJ-26854165]; settings: top dose 10 µM
Description: as §1

Cyclopamine = compound: CC1=C2C[C@H]3[C@@H](CC=C4C[C@@H](O)CC[C@@]43C)[C@@H]2CC[C@]12O[C@@H]1C[C@H](C)CN[C@H]1[C@H]2C [Cyclopamine]; settings: top dose 16 µM; top dose inferred
Description: as §1

Docetaxel = compound: CC(=O)O[C@@]12CO[C@@H]1C[C@H](O)[C@@]1(C)C(=O)[C@H](O)C3=C(C)[C@@H](OC(=O)[C@H](O)[C@@H](NC(=O)OC(C)(C)C)c4ccccc4)C[C@@](O)([C@@H](OC(=O)c4ccccc4)[C@H]21)C3(C)C [Docetaxel]; settings: top dose 0.0125 µM
Description: as §1

OSI-906 = compound: C[C@]1(O)C[C@@H](c2nc(-c3ccc4ccc(-c5ccccc5)nc4c3)c3c(N)nccn32)C1 [OSI-906]; settings: top dose 2.56 µM; top dose inferred
Description: as §1

NSC-207895 = compound: CN1CCN(c2ccc([N+](=O)[O-])c3no[n+]([O-])c23)CC1 [NSC-207895]; settings: top dose 20 µM; top dose inferred
Description: as §1

YM155 = compound: COCC[n+]1c2c(n(Cc3cnccn3)c1C)C(=O)c1ccccc1C2=O [YM155]; settings: top dose 5.12 µM
Description: as §1

AMG-706 = compound: CC1(C)CNc2cc(NC(=O)c3cccnc3NCc3ccncc3)ccc21 [AMG-706]; settings: top dose 2 µM; top dose inferred
Description: as §1

JNK Inhibitor VIII = compound: CCOc1nc(NC(=O)Cc2cc(OC)ccc2OC)cc(N)c1C#N [JNK Inhibitor VIII]; settings: top dose 10 µM; top dose inferred
Description: as §1

[1] = top dose 1 µM, screen: GDSC drug entry 1218, top dose inferred
[2] = top dose 2.56 µM, screen: GDSC drug entry 163

Cell Line	AUC (SB-715992)	IC50 (SB-715992)	AUC (CGP-60474)	IC50 (CGP-60474)	AUC (FTI-277)	IC50 (FTI-277)	AUC (Belinostat)	IC50 (Belinostat)	AUC (JQ1; [1])	IC50 (JQ1; [1])	AUC (JQ1; [2])	IC50 (JQ1; [2])	AUC (NVP-TAE684)	IC50 (NVP-TAE684)	AUC (JNJ-26854165)	IC50 (JNJ-26854165)	AUC (Cyclopamine)	IC50 (Cyclopamine)	AUC (Docetaxel)	IC50 (Docetaxel)	AUC (OSI-906)	IC50 (OSI-906)	AUC (NSC-207895)	IC50 (NSC-207895)	AUC (YM155)	IC50 (YM155)	AUC (AMG-706)	IC50 (AMG-706)	AUC (JNK Inhibitor VIII)	IC50 (JNK Inhibitor VIII)
BB65-RCC (kidney, adherent)	0.957	> 128 nM	0.641	41.9 nM	0.969	> 1020 nM	0.442	845 nM	0.98	> 1000 nM	0.888	> 2560 nM	0.855	1980 nM	0.829	7540 nM	0.96	> 16000 nM	0.704	3.23 nM	0.832	1980 nM	0.886	> 20000 nM	0.04	< 20 nM	–	–	–	–
C2BBe1 (large intestine, adherent)	0.985	> 128 nM	0.79	131 nM	0.983	> 1020 nM	0.455	927 nM	0.984	> 1000 nM	0.718	730 nM	0.79	1030 nM	0.925	> 10000 nM	0.97	> 16000 nM	0.657	2.27 nM	0.829	1900 nM	0.846	17700 nM	0.484	287 nM	0.962	> 2000 nM	–	–
KASUMI-1 (acute myeloid leukaemia, suspension)	0.699	29.1 nM	0.927	> 256 nM	0.92	> 1020 nM	–	–	0.964	> 1000 nM	0.35	61.3 nM	0.899	> 2000 nM	0.878	> 10000 nM	0.982	> 16000 nM	0.949	> 12.5 nM	–	–	–	–	–	–	–	–	–	–
KNS-42 (glioma, adherent)	0.873	> 128 nM	0.811	170 nM	0.984	> 1020 nM	0.568	1990 nM	0.982	> 1000 nM	0.852	> 2560 nM	0.95	> 2000 nM	0.94	> 10000 nM	0.97	> 16000 nM	–	–	0.969	> 2560 nM	0.893	> 20000 nM	0.076	< 20 nM	0.98	> 2000 nM	0.984	> 10000 nM
LB831-BLC (bladder, adherent)	0.918	> 128 nM	0.633	37.4 nM	0.928	> 1020 nM	0.387	609 nM	0.982	> 1000 nM	0.721	685 nM	0.728	563 nM	0.87	9560 nM	0.984	> 16000 nM	–	–	0.986	> 2560 nM	0.939	> 20000 nM	0.125	< 20 nM	0.987	> 2000 nM	0.978	> 10000 nM
LB996-RCC (kidney, adherent)	0.983	> 128 nM	0.64	41.6 nM	0.968	> 1020 nM	0.712	5540 nM	0.981	> 1000 nM	0.779	1230 nM	0.755	781 nM	0.795	5520 nM	0.964	> 16000 nM	–	–	0.933	> 2560 nM	0.981	> 20000 nM	0.709	1390 nM	0.968	> 2000 nM	0.962	> 10000 nM
LOXIMVI (melanoma, semi-adherent)	0.936	> 128 nM	0.829	137 nM	0.989	> 1020 nM	0.487	1150 nM	0.917	> 1000 nM	0.814	1210 nM	0.904	> 2000 nM	0.921	> 10000 nM	0.922	> 16000 nM	–	–	0.886	2290 nM	0.99	> 20000 nM	0.026	< 20 nM	0.989	> 2000 nM	0.982	> 10000 nM
LU-65 (large cell lung carcinoma, suspension)	0.798	73.8 nM	0.889	> 256 nM	0.987	> 1020 nM	0.502	1260 nM	0.982	> 1000 nM	0.921	> 2560 nM	0.878	> 2000 nM	0.968	> 10000 nM	0.972	> 16000 nM	0.987	> 12.5 nM	–	–	0.97	> 20000 nM	0.064	< 20 nM	0.986	> 2000 nM	0.987	> 10000 nM
NCI-H1355 (lung adenocarcinoma, adherent)	0.929	> 128 nM	0.58	29.2 nM	0.9	> 1020 nM	0.923	> 20000 nM	0.96	> 1000 nM	0.801	1960 nM	0.675	480 nM	0.939	> 10000 nM	0.938	> 16000 nM	–	–	0.556	243 nM	0.975	> 20000 nM	0.631	864 nM	0.929	> 2000 nM	0.891	> 10000 nM
